Some of the results follow. This is a noisy data set.
What was measured:
Experiment in all cases: mutation enrichment score (mutant vs wild-type peptide binding to bait); baits are purified protein domains named by gene / domain / UniProt id / residues; peptides come from disordered regions of human proteins; higher = mutation enhances binding relative to wild type
[1] = molecular target: T1, EPS15_EH__P42566_121_215; settings: number of wild-type / mutant comparisons summed (bounds the score): 6; paper call: enhanced; wild-type window: …
T1 chain: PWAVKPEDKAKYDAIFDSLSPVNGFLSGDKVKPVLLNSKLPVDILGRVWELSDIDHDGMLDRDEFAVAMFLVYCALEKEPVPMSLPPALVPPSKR

[2] = molecular target: T2, PEX14_Pex14__O75381_16_84; settings: number of wild-type / mutant comparisons summed (bounds the score): 12; paper call: enhanced; wild-type window: …
T2 chain: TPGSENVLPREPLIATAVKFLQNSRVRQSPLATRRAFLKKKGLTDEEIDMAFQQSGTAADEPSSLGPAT

[3] = molecular target: PTBP1_RRM_2_P26599_157_285; settings: number of wild-type / mutant comparisons summed (bounds the score): 6; paper call: no_effect; wild-type window: …
[4] = molecular target: T3, SIN3A_PAH__Q96ST3_295_383; settings: number of wild-type / mutant comparisons summed (bounds the score): 10; paper call: enhanced; wild-type window: …
T3 chain: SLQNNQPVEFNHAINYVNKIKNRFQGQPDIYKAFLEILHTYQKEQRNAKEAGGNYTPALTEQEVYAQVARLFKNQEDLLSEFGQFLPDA

[5] = molecular target: T4, EPHA3_Pkinase__P29320_606_947; settings: number of wild-type / mutant comparisons summed (bounds the score): 6; paper call: no_effect; wild-type window: …
T4 chain: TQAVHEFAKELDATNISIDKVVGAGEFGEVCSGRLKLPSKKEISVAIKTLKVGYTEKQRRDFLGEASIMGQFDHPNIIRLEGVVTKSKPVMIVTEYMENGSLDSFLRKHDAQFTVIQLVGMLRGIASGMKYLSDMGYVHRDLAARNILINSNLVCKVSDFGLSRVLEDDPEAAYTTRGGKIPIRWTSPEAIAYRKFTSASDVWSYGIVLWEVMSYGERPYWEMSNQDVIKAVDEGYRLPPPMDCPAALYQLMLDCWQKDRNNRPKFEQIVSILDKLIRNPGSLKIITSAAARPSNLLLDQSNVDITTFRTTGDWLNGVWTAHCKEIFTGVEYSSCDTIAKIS

[6] = molecular target: T5, EPHB2_Pkinase__P29323_604_898; settings: paper call: no_effect, wild-type window: …
T5 chain: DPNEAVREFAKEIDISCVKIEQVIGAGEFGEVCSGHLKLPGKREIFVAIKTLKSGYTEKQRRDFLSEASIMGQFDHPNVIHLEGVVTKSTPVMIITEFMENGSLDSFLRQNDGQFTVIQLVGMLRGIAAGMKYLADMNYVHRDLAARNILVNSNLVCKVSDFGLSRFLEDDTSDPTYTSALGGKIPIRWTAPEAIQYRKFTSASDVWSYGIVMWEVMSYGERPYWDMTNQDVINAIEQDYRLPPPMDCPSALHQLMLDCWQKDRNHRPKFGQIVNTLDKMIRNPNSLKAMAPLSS

[7] = molecular target: Intersectin-1_SH3_2_Q15811_913_971; settings: number of wild-type / mutant comparisons summed (bounds the score): 6; paper call: no_effect; wild-type window: …
[8] = molecular target: PDCD6IP_Bro__Q8WUM4_1_359; settings: number of wild-type / mutant comparisons summed (bounds the score): 5; paper call: no_effect; wild-type window: …
[9] = molecular target: T6, EIF_DEAD__P60842_29_237; settings: paper call: no_effect, wild-type window: …
T6 chain: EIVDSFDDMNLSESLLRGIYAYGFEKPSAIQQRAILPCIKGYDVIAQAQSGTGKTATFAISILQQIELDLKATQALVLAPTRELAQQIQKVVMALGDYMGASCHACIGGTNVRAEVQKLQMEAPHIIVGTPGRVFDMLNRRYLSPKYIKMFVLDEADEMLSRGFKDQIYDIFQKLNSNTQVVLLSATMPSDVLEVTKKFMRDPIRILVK

[10] = molecular target: REPS1___Q96D71_226_314; settings: number of wild-type / mutant comparisons summed (bounds the score): 6; paper call: no_effect; wild-type window: …
[11] = molecular target: NEDD4_WW_2_P46934_765_803; settings: number of wild-type / mutant comparisons summed (bounds the score): 6; paper call: no_effect; wild-type window: …
[12] = number of wild-type / mutant comparisons summed (bounds the score): 6
[13] = number of wild-type / mutant comparisons summed (bounds the score): 12

Sequence of NEDD4_WW_2_P46934_765_803 (chain, as listed by the source): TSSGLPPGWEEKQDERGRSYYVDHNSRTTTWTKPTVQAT

With RGPRQNSRLGLPLLLMPEEAWLLAEIGAVTLVSAPRPDSRH [R58W R58W] the mutation enrichment score [1] was 6, the mutation enrichment score [2] was 12 and the mutation enrichment score [3] was -3. It also gave a mutation enrichment score [4] of 6.

PHALYSHKPEVAQYTHTGLLLQTMLITDTTNLSALASLTPT [P519L P519L] gave a mutation enrichment score [5] of 2 and a mutation enrichment score [6, 12] of 3.

With DTYADALWWGLITLTTIGYGHKYPQTWNGRLLAATFTLIGV [D282H D282H] the mutation enrichment score [6, 12] was -1.

Binder DTYADALWWGLITLTTIGYGNKYPQTWNGRLLAATFTLIGV [D282N D282N] has a mutation enrichment score [6, 12] of -1.

For AEKGENDHFDTYADALWWGLNTLTTIGYGDKYPQTWNGRLL [I273N I273N], the mutation enrichment score [6, 12] was -1.

Work on AEKGENDHFDTYADALWWGLMTLTTIGYGDKYPQTWNGRLL [I273M I273M] yielded a mutation enrichment score [6, 13] of -1, a mutation enrichment score [7] of 0 and a mutation enrichment score [8] of 2.

SDDETEDELDDQGSAVEPEQTRVNREAEENREPFRKECTWQ [N45T N45T] showed a mutation enrichment score [9, 13] of -2.

Binder AGGAAPGRGAAGRARCLGPSVRGPG [A128V A128V] has a mutation enrichment score [9, 12] of 1.

YRQVFERHYPGRADWLSHYWIPKWINATDPSARTLTHYKSA [M538I M538I] showed a mutation enrichment score [5] of -3.3, a mutation enrichment score [6, 12] of -1.5 and a mutation enrichment score [10] of -2.

For PVGEFLLAGGRTKTWLVGNKPVTVTTSVGTGTRSLLGLDSG [L1066P L1066P], the mutation enrichment score [5] was 1.

Work on LCDFGISGQLVDSIAKTRDACCRPYMAPERIDPSASRQGYD [G265C G265C] yielded a mutation enrichment score [9, 13] of -2.

DEVFWFGDFNFRLSGGRTVVNALLCQGLVVDVPALLQHDQL [D490N D490N] gave a mutation enrichment score [5] of -2 and a mutation enrichment score [6, 12] of -2.

DEVFWFGDFNFRLSGGRTVVYALLCQGLVVDVPALLQHDQL [D490Y D490Y] gave a mutation enrichment score [5] of -2 and a mutation enrichment score [6, 12] of -2.

With NDHFDTYADALWWGLITLTTTGYGDKYPQTWNGRLLAATFT [I278T I278T] the mutation enrichment score [6, 12] was -1.

With FRAGDMLNLALKEQQPKVRGGLLASLDGQTTGLIPANYVKI [W313G W313G] the mutation enrichment score [9, 13] was -2.

Binder HIAEDADRKYEEVARKLVIIDSDLERAEERAELSEGKCAEL [E173D E173D] has a mutation enrichment score [5] of 2 and a mutation enrichment score [6, 12] of 3.

ALMDSSSSLSRNPPSYIAPYGCILRYAVSAALWLAIGIIQV [S728G S728G] gave a mutation enrichment score [9, 12] of 1 and a mutation enrichment score [11] of 4.

With FLVYLAEKGENDHFDTYADAFWWGLITLTTIGYGDKYPQTW [L268F L268F] the mutation enrichment score [6, 12] was -1 and the mutation enrichment score [8] was 3.

For FLVYLAEKGENDHFDTYADAPWWGLITLTTIGYGDKYPQTW [L268P L268P], the mutation enrichment score [6, 12] was -1.

EKGENDHFDTYADALWWGLIMLTTIGYGDKYPQTWNGRLLA [T274M T274M] showed a mutation enrichment score [6, 12] of -1.

ADQRQYEEWLFHTQQLLQMQPKVLEEQIGVHRKSRKALCAK [L3525P L3525P] was tested, and the mutation enrichment score [9, 12] was 4.
